Test results: patent US20210155701A1 (Chugai, published 2021)

T1: hsIL-6R-BAP1 (biotinylated hsIL-6R-Avitag) (human, UniProt P08887 20-357, biotin on the C-terminal AviTag sequence (SEQ ID NO: 36))
T1 construct: biotinylated by co-expressed BirA; also called biotinylated soluble human IL6R
T1 sequence: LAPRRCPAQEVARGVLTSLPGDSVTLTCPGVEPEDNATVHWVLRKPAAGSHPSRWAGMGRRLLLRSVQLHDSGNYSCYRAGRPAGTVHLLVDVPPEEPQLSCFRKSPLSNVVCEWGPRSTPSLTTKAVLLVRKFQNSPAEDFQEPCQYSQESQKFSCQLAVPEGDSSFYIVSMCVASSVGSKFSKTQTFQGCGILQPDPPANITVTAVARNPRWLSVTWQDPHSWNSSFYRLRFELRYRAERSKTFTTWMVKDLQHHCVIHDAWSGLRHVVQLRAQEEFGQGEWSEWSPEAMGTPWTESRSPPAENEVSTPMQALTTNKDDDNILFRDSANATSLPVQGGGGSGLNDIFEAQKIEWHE


Target: T2, biotinylated plexin A1 (human, UniProt Q9UIW2 27-1253, biotin on the AviTag sequence (SEQ ID NO: 36))
T2 construct: also called biotin-labeled human plexin A1; human plexin A1
Test: BLI (Octet) as in Example 3

| Binder | binding result |
| --- | --- |
| PX02-R2_001-G1mISHI01/VK1-39-k0MT (before protease treatment) (antibody, human IgG1, kappa, Uncleaved IgG antibody-like molecule) heavy: QLQLVESGGGLVQPGGSLRLSCTASGISFSISTMGWYRQAPGKQRELVATITSGGEAYYANSMKDRFTISRDNAENTVYLQMNRLKPEDSAVYYCNTKFPWSTDWDSRGQGTQVTVSGGSGLSGRSDNHGSSGGSS[sequence of human IgG1 constant region not given] light: DIQMTQSPSSLSASVGDRVTITCRASQSISSYLNWYQQKPGKAPKLLIYAASSLQSGVPSRFSGSGSGTDFTLTISSLQPEDFATYYCLQFDSYPLTFGGGTKVEIKRTVAAPSVFIFPPSDEQLKSGTASVVCLLNNFYPREAKVQWKVDNALQSGNSQESVTEQDSKDSTYSLSSTLTLSKADYEKHKVYACEVTHQGLSSPVTKSFNRGEC | no binding |
| PX02-R4_004-G1mISHI01/VK1-39-k0MT (before protease treatment) (antibody, human IgG1, kappa, Uncleaved) heavy: QVQLVESGGGLVQPGGSLRLSCTASGISFSISTMGWYRQAPGKQRELVATITSGGEAYYANSMKDRFTISRDNAENTVYLQMNRLKPEDSAVYYCNTKFPWSTDWDSRGQGTQVTVSGGSGLSGRSDNHGSSGGSS[sequence of human IgG1 constant region not given] light: DIQMTQSPSSLSASVGDRVTITCRASQSISSYLNWYQQKPGKAPKLLIYAASSLQSGVPSRFSGSGSGTDFTLTISSLQPEDFATYYCLQFDSYPLTFGGGTKVEIKRTVAAPSVFIFPPSDEQLKSGTASVVCLLNNFYPREAKVQWKVDNALQSGNSQESVTEQDSKDSTYSLSSTLTLSKADYEKHKVYACEVTHQGLSSPVTKSFNRGEC | no binding |

Target: T1, hsIL-6R-BAP1 (biotinylated …)
Test: BLI (Octet HTX), hsIL-6R-BAP1 on streptavidin sensor, sample without protease treatment, 30 degrees C

| Binder | binding result |
| --- | --- |
| IL6R90H1006/VK1-39-k0MT (without protease treatment) (antibody, human IgG1, kappa, Uncleaved IgG antibody-like molecule) heavy: EVQLVESGGGLVQPGGSLRLSCAASGFTFDDYGMSWVRQAPGKALEWVSAISWNGNNTYYTESMKGRFTISRDNAKNTLYLQMNSLRPEDTAVYYCVKGSTAIVGVPPTYPDEYDYWGQGTLVTVSSASTKSGGSGLSGRSDNHGSSGGGPSVFPLAPSSKSTSGGTAALGCLVKDYFPEPVTVSWNSGALTSGVHTFPAVLQSSGLYSLSSVVTVPSSSLGTQTYICNVNHKPSNTKVDKKV[sequence of human IgG1 Fc not given] light: DIQMTQSPSSLSASVGDRVTITCRASQSISSYLNWYQQKPGKAPKLLIYAASSLQSGVPSRFSGSGSGTDFTLTISSLQPEDFATYYCLQFDSYPLTFGGGTKVEIKRTVAAPSVFIFPPSDEQLKSGTASVVCLLNNFYPREAKVQWKVDNALQSGNSQESVTEQDSKDSTYSLSSTLTLSKADYEKHKVYACEVTHQGLSSPVTKSFNRGEC | no binding |
| IL6R90H1002/VK1-39-k0MT (without protease treatment) (antibody, human IgG1, kappa, uncleaved) heavy: EVQLVESGGGLVQPGGSLRLSCAASGFTFDDYGMSWVRQAPGKALEWVSAISWNGNNTYYTESMKGRFTISRDNAKNTLYLQMNSLRPEDTAVYYCVKGSTAIVGVPPTYPDEYDYWGQGTLVTVSSASSGGSGLSGRSDNHGSSGGTKGPSVFPLAPSSKSTSGGTAALGCLVKDYFPEPVTVSWNSGALTSGVHTFPAVLQSSGLYSLSSVVTVPSSSLGTQTYICNVNHKPSNTKVDKKV[sequence of human IgG1 Fc not given] light: DIQMTQSPSSLSASVGDRVTITCRASQSISSYLNWYQQKPGKAPKLLIYAASSLQSGVPSRFSGSGSGTDFTLTISSLQPEDFATYYCLQFDSYPLTFGGGTKVEIKRTVAAPSVFIFPPSDEQLKSGTASVVCLLNNFYPREAKVQWKVDNALQSGNSQESVTEQDSKDSTYSLSSTLTLSKADYEKHKVYACEVTHQGLSSPVTKSFNRGEC | no binding |
| IL6R90H1004/VK1-39-k0MT (without protease treatment) (antibody, human IgG1, kappa, Uncleaved IgG antibody-like molecule) heavy: EVQLVESGGGLVQPGGSLRLSCAASGFTFDDYGMSWVRQAPGKALEWVSAISWNGNNTYYTESMKGRFTISRDNAKNTLYLQMNSLRPEDTAVYYCVKGSTAIVGVPPTYPDEYDYWGQGTLVTVSGGSGLSGRSDNHGSSGGSS[sequence of human IgG1 constant region not given] light: DIQMTQSPSSLSASVGDRVTITCRASQSISSYLNWYQQKPGKAPKLLIYAASSLQSGVPSRFSGSGSGTDFTLTISSLQPEDFATYYCLQFDSYPLTFGGGTKVEIKRTVAAPSVFIFPPSDEQLKSGTASVVCLLNNFYPREAKVQWKVDNALQSGNSQESVTEQDSKDSTYSLSSTLTLSKADYEKHKVYACEVTHQGLSSPVTKSFNRGEC | no binding |
| IL6R90H1005/VK1-39-k0MT (without protease treatment) (antibody, human IgG1, kappa, Uncleaved IgG antibody-like molecule) heavy: EVQLVESGGGLVQPGGSLRLSCAASGFTFDDYGMSWVRQAPGKALEWVSAISWNGNNTYYTESMKGRFTISRDNAKNTLYLQMNSLRPEDTAVYYCVKGSTAIVGVPPTYPDEYDYWGQGTLVTVSSASTKLSGRSDNHGGPSVFPLAPSSKSTSGGTAALGCLVKDYFPEPVTVSWNSGALTSGVHTFPAVLQSSGLYSLSSVVTVPSSSLGTQTYICNVNHKPSNTKVDKKV[sequence of human IgG1 Fc not given] light: DIQMTQSPSSLSASVGDRVTITCRASQSISSYLNWYQQKPGKAPKLLIYAASSLQSGVPSRFSGSGSGTDFTLTISSLQPEDFATYYCLQFDSYPLTFGGGTKVEIKRTVAAPSVFIFPPSDEQLKSGTASVVCLLNNFYPREAKVQWKVDNALQSGNSQESVTEQDSKDSTYSLSSTLTLSKADYEKHKVYACEVTHQGLSSPVTKSFNRGEC | no binding |
